Test results published in paper PMC7847993.
Like-named read-outs stand apart in the source and are kept apart here. No constants are given. Whether binding was seen depends on the method and setting. Binding seen in cells or lysates may run through a third protein. Some results given as binding are weak or reduced against the parent protein; the word gives no strength.

The chains behind the UniProt entries cited, without tags or fusion partners. Where a name states a change or a piece, a line headed by the entry shows the natural chain unless it says otherwise.
UniProt Q9ZSD4: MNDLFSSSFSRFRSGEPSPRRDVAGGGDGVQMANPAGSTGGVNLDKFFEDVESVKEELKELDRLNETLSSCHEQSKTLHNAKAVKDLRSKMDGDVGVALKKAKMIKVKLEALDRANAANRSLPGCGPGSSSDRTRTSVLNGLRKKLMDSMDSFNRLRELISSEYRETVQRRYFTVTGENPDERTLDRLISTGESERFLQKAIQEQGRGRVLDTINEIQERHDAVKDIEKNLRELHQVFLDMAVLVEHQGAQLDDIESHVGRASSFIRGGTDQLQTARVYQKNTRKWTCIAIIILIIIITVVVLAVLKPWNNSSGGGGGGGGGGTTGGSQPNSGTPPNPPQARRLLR

B1: SYP111 (protein, UniProt Q42374 1-310)
chain: MNDLMTKSFMSYVDLKKAAMKDMEAGPDFDLEMASTKADKMDENLSSFLEEAEYVKAEMGLISETLARIEQYHEESKGVHKAESVKSLRNKISNEIVSGLRKAKSIKSKLEEMDKANKEIKRLSGTPVYRSRTAVTNGLRKKLKEVMMEFQGLRQKMMSEYKETVERRYFTVTGEHANDEMIEKIITDNAGGEEFLTRAIQEHGKGKVLETVVEIQDRYDAAKEIEKSLLELHQVFLDMAVMVESQGEQMDEIEHHVINASHYVADGANELKTAKSHQRNSRKWMCIGIIVLLLIILIVVIPIITSFSSS
B2: SYP123 (protein, UniProt Q9ZQZ8 1-305)
chain: MNDLISSSFKRYTDLNHQVQLDDIESQNVSLDSGNLDEFFGYVESVKEDMKAVDEIHKRLQDANEESKTVHDSKAVKKLRARMDSSVTEVLKRVKMIKTKLVALEKSNAAQRKVAGCGPGSSADRTRTSVVSGLGKKLKDMMDDFQRLRTKMATEYKETVERRYFTVTGQKADEETVEKLISSGESERFLQKAIQEQGRGQVMDTLSEIQERHDTVKEIERSLLELHQVFLDMAALVEAQGNMLNDIESNVSKASSFVMRGTDQLHGAKVLQRNNRKWACIATILAIVVVIVILFPILFNTLLRP
B3: SYP124 (protein, UniProt O64791 1-303)
chain: MNDLFSSSFKKYTDLKQQAQMDDIESGKETMNLDKFFEDVENVKDNMKGVETLYKSLQDSNEECKTVHNAKKVKELRAKMDGDVAQVLKRVKMIKQKLEALEKANANSRNVSGCGPGSSTDRTRTSVVSGLGKKLKDLMDSFQGLRARMNAEYKETVERRYFTITGEQADEQTIENLISSGESENFLQKAIQEQGRGQILDTISEIQERHDAVKEIEKNLIELHQVFLDMAALVESQGQQLNDIESHVSKASSFVRRGTDQLQDAREYQKSSRKWTCYAILLFIVVFALLLIPALPHIMLMLK
B4: SYP125 (protein, UniProt Q9SXB0 1-298)
chain: MNDLFSNSFKKNQAQLGDVEAGQETMNLDKFFEDVENVKDDMKGVEALYKKLQDSNEECKTVHNAKKVKELRAKMDGDVAMVLKRVKIIKQKLEALEKANANSRNVPGCGPGSSTDRTRSSVVSGLGKKLKDLMDSFQGLRARMNNEYKETVERRYFTITGEKADEQTIDNLIASGESENFLQKAIQEQGRGQILDTISEIQERHDAVKEIEKNLLELHQVFLDMAALVEAQGQQLNNIESHVAKASSFVRRGTDQLQDAREYQKSSRKWTCYAIILFIVIFILLLIPLLPHIMLMLK
B5: SYP131 (protein, UniProt Q9SRV7 1-306)
chain: MNDLLKGSLEFSRDRSNRSDIESGHGPGNSGDLGLSGFFKKVQEIEKQYEKLDKHLNKLQGAHEETKAVTKAPAMKSIKQRMERDVDEVGRISRFIKGKIEELDRENLENRTKPGCGKGTGVDRTRTATTIAVKKKFKDKISEFQTLRQNIQQEYREVVERRVFTVTGQRADEEAIDRLIETGDSEQIFQKAIREQGRGQIMDTLAEIQERHDAVRDLEKKLLDLQQVFLDMAVLVDAQGEMLDNIENMVSSAVDHVQSGNNQLTKAVKSQKSSRKWMCIAILILLIIIIITVISVLKPWTQKNGA
B6: SYP132 (protein, UniProt Q8VZU2 1-304)
chain: MNDLLKGSFELPRGQSSREGDVELGEQQGGDQGLEDFFKKVQVIDKQYDKLDKLLKKLQASHEESKSVTKAPAMKAIKKTMEKDVDEVGSIARFIKGKLEELDRENLANRQKPGCAKGSGVDRSRTATTLSLKKKLKDKMAEFQVLRENIQQEYRDVVDRRVYTVTGERADEDTIDELIETGNSEQIFQKAIQEQGRGQVMDTLAEIQERHDAVRDLEKKLLDLQQIFLDMAVLVDAQGEMLDNIESQVSSAVDHVQSGNTALQRAKSLQKNSRKWMCIAIIILLIVVAVIVVGVLKPWKNKSA
B7: NtSYP121 (protein, UniProt Q9ZSD5 1-300)
chain: MNDLFSGSFSRFRADDQSDSHAIEMGDITGGVNLDKFFEDVEAIKDELKGLEKIYSQLQSSHEKSKTLHNAKAVKDLRSNMDNDVSMALKKAKFIKVRLEALDRSNAANRSLPGCGPGSSSDRTRTSVVNGLRKKLQESMNQFNELRQKMASEYRETVQRRYYTVTGENPDEAVLDTLISTGQSETFLQKAIQEQGRGQVMDTVMEIQERHEAVKELERNLKELHQVFLDMAVLVESQGAQLDDIESQVNRANSFVRGGAQQLQVARKHQKNTRKWTCFAIILLLIIILVVVLSIQPWKK
B8: SNAP33 (protein, UniProt Q9S7P9 1-300)
chain: MFGLRKSPANLPKHNSVDLKSSKPNPFDSDDESDNKHTLNPSKRTTSEPSLADMTNPFGGERVQKGDSSSSKQSLFSNSKYQYKNNFRDSGGIENQSVQELEGYAVYKAEETTKSVQGCLKVAEDIRSDATRTLVMLHDQGEQITRTHHKAVEIDHDLSRGEKLLGSLGGMFSKTWKPKKTRPINGPVVTRDDSPTRRVNHLEKREKLGLNSAPRGQSRTREPLPESADAYQRVEMEKAKQDDGLSDLSDILGELKNMAVDMGSEIEKQNKGLDHLHDDVDELNFRVQQSNQRGRRLLGK
B9: SYP112 (protein, UniProt Q9ZPV9 1-305)
chain: MNDLMTKSFLSYVELKKQARTDMESDRDLEKGEDFNFDFSPADEENLSGFFQEIETIKTLIEEITHLLLDLQNLNEETKSTHSTKILRGLRDRMESNIVTISRKANTVKTLIETLEKRNVANRTSFKEGSCVDRTRTSITNGVRKKLRDTMSEFHRLRERIFADYREDLKRKYFLATGEEPSNEDMEKMISGSGSCSDLVKTFEVKPEMDLKTKERHEAVNDIKRSLNRLHQVFLDMAVLVETQGDRIDDIEANVANAGSFVSGGTNSLYYANQMKKKTKSWVLWVSILGVLILLVCVISMLASR
B10: SYP22 (protein, UniProt P93654 1-268)
chain: MSFQDLESGRGRSTRKFNGGRQDSTQAVASGIFQINTGVSTFQRLVNTLGTPKDTPELREKLHKTRLHIGQLVKDTSAKLKEASETDHQSGVNPSKKIADAKLARDFQAVLKEFQKAQQTAAERETTYTPFVPQSALPSSYTAGEVDKVPEQRAQLQESKRQELVLLDNEIAFNEAVIEEREQGIQEIHQQIGEVNEIFKDLAVLVNDQGVMIDDIGTHIDNSRAATSQGKSQLVQAAKTQKSNSSLTCLLLVIFGIVLLIVIIVLAA
B11: SYP41 (protein, UniProt O65359 1-322)
chain: MATRNRTLLFRKYRNSLRSVRAPLSSSSLTGTRSGGVGPVIEMASTSLLNPNRSYAPISTEDPGTSSKGAITVGLPPAWVDVSEEISVNIQRARTKMAELGKAHAKALMPSFGDGKEDQHNIESLTQEITFLLKKSEKQLQRLSASGPSEDSNVRKNVQRSLATDLQLLSMELRKKQSTYLKRLRQQKEDGMDLEMNLSRNRYRPEEDDFGDMLNEHQMSKIKKSEEVSVEREKEIQQVVESVNDLAQIMKDLSALVIDQGTIVDRIDYNIENVATTVEDGLKQLQKAERTQRHGGMVKCASVLVILCFIMLLLLILKEIFL
B12: SYP51 (protein, UniProt Q9SA23 1-232)
chain: MASSSDSWMRAYNEALKLSEEINGMISERSSSAVTGPDAQRRASAIRRKITIFGNKLDSLQSLLAEIHGKPISEKEMNRRKDMVGNLRSKANQMANALNMSNFANRDSLLGPDIKPDDSMSRVTGMDNQGIVGYQRQVMREQDEGLEQLEGTVMSTKHIALAVSEELDLQTRLIDDLDYHVDVTDSRLRRVQKSLAVMNKNMRSGCSCMSMLLSVLGIVGLAVVIWMLVKYM
B13: VAMP722 (protein, UniProt P47192 1-221)
chain: MAQQSLIYSFVARGTVILVEFTDFKGNFTSIAAQCLQKLPSSNNKFTYNCDGHTFNYLVENGFTYCVVAVDSAGRQIPMAFLERVKEDFNKRYGGGKAATAQANSLNKEFGSKLKEHMQYCMDHPDEISKLAKVKAQVSEVKGVMMENIEKVLDRGEKIELLVDKTENLRSQAQDFRTQGTQMRRKMWFQNMKIKLIVLAIIIALILIIILSICGGFNCGK

Legend:
[1] = biological target: T1, Arabidopsis PIP2;7 (Arabidopsis thaliana) (UniProt P93004); experiment: split reporter; ratiometric BiFC (pBiFCt-2in1-NN vector, p35S): nEYFP-SNARE and cEYFP-PIP co-expressed in N. benthamiana leaf cells, imaged 3 days after agro-infiltration; YFP/RFP ratio at the plasma membrane compared with SYP121/PIP2;7 (positive) and SNAP33/PIP2;7 (negative)
T1 sequence: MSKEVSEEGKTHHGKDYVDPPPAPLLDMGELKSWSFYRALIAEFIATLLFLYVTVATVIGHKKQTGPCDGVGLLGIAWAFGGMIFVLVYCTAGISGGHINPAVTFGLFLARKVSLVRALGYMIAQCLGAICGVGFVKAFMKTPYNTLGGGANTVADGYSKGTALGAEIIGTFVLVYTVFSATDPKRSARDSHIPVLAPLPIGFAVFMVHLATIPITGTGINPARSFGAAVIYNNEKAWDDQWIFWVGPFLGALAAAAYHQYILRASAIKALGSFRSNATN

[2] = biological target: T1, Arabidopsis PIP2;7 (Arabidopsis thaliana); experiment: as above; remark: listed apart in the source

Row | Molecule | binding [1] | binding [2]
1 | SYP121-[143–222] (from UniProt Q9ZSD4 143-222) (domain or fragment) | binds weakly | 
2 | SYP121-H (from UniProt Q9ZSD4 44-192) (domain or fragment) | no binding | 
3 | SYP121ΔNH (from UniProt Q9ZSD4 193-346) (domain or fragment) | binds | 
4 | SYP121ΔQC (from UniProt Q9ZSD4 1-192) (domain or fragment) | no binding | 
5 | SYP121ΔNHQ (from UniProt Q9ZSD4 284-346) (domain or fragment) | binds | 
6 | SYP121-[171–222] (from UniProt Q9ZSD4 171-222) (domain or fragment) | binds weakly | 
7 | SYP121-[143–200] (from UniProt Q9ZSD4 143-200) (domain or fragment) | no binding | 
8 | SYP121-[171–200] (from UniProt Q9ZSD4 171-200) (domain or fragment) | no binding | 
9 | SYP121-HQ (from UniProt Q9ZSD4 44-283) (domain or fragment) | binds | 
10 | SYP121-Q (from UniProt Q9ZSD4 193-283) (domain or fragment) | no binding | 
11 | B1 |  | binds
12 | B2 |  | binds
13 | B3 |  | binds
14 | B4 |  | binds
15 | B5 |  | binds
16 | B6 |  | binds
17 | B7 |  | binds
18 | B8 |  | no binding
19 | B9 |  | no binding
20 | B10 |  | no binding
21 | B11 |  | no binding
22 | B12 |  | no binding
23 | B13 |  | no binding
